The text below walks through data of paper PMC6919601, “Identification of Plasmodium dipeptidyl aminopeptidase allosteric inhibitors by high throughput screening” (PLoS ONE, 2019).

The structures appear in SMILES notation. Screen size: about 110,000 compounds; about 230 (0.21%) showed an effect of 50% or more. The list shows a part of the results.
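Also: 30 min substrate incubation versus DMSO and 10 µM JCP410 controls.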

This test deals with DPAP1 (Plasmodium falciparum, UniProt Q8IIJ9). Description: primary screen, percent inhibition; read by cleavage of a fluorogenic dipeptide substrate; higher = more effect of the substance. More on the design: species or system P. falciparum D10 trophozoite lysates; single well.
Sequence of DPAP1 (Q8IIJ9 whole entry, looked up): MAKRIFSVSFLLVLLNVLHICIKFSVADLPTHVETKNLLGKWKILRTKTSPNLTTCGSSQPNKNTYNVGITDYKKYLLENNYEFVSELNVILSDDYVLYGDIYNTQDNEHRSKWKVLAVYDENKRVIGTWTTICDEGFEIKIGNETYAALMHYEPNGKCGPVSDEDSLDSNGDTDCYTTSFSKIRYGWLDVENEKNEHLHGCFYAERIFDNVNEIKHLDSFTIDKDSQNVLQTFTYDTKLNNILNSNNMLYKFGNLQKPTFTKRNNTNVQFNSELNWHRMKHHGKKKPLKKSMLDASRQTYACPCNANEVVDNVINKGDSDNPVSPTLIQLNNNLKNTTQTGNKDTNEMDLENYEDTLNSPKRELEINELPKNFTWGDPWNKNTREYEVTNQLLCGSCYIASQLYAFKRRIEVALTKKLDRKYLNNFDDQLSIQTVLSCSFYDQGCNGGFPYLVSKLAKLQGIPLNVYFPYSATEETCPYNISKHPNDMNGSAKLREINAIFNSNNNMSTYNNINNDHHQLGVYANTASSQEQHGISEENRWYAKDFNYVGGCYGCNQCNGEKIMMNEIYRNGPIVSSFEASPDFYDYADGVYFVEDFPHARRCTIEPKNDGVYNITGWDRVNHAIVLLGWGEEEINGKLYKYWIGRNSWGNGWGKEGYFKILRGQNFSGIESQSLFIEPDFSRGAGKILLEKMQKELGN
Turning to `CC1=C(C(=O)NCc2ccccc2Cl)C2(CCCCC2)OC1=O`, the “% Inhibition @ 10 uM” value was 1.55%. As for `COc1ccc(Nc2nn(C)c3c(C)nc(C)c[n+]23)cc1`, the “% Inhibition @ 10 uM” value is on record as 2.48%. For the compound `COc1ccc(OC)c(CCNC(=O)c2c(C)nn(-c3ccccc3)c2-n2cccc2)c1`, the “% Inhibition @ 10 uM” value is reported as -1.58%. Take `CC1=CC(C)C2(CO)COC(c3ccc4c(c3)OCO4)C1C2C` (centres unmarked): the “% Inhibition @ 10 uM” value stood at 3.61%. For `COc1cc(NS(=O)(=O)c2ccc(F)cc2)c(OC)cc1Cl`, the “% Inhibition @ 10 uM” value is on record as -0.736%. On to `COCC(=O)n1nc(-c2ccco2)nc1NCc1cccs1`, for which the “% Inhibition @ 10 uM” value was -1.47%. Consider `Cc1nc(N2C(=O)c3oc4ccccc4c(=O)c3C2c2ccc(OCc3ccccc3)cc2)sc1C` (centres unmarked), for which the “% Inhibition @ 10 uM” value was -0.828%. In the case of `C=CCCC1COC(c2ccc(C#N)cc2)OC1` (centres unmarked), the “% Inhibition @ 10 uM” value stood at 5.73%.

For the compound `O=C1c2cccc3cccc(c23)C(=O)N1Cc1ccccn1`, the “% Inhibition @ 10 uM” value worked out at 0.0265%. In the case of `Nc1ccc(Sc2ccc(N3C(=O)c4ccc(N)cc4C3=O)cc2)cc1` it was -3.34%; in that of `NC(=O)C1CCN(c2nc3c(S(=O)(=O)c4ccccc4)nnn3c3ccc(Cl)cc23)CC1`, -6.68%; in that of `CC(C)NS(=O)(=O)c1ccc(OCC(=O)N2CCCCCC2)cc1`, 1.69%.

Turning to `OCCNc1ncnc2c1sc1nc(-c3ccccc3)c3c(c12)CCCC3`, the “% Inhibition @ 10 uM” value worked out at 3.73%.

For `CC1CC(Nc2ccccc2)c2ccccc2N1C(=O)Cc1ccccc1` (centres unmarked), the “% Inhibition @ 10 uM” value worked out at 1.08%.

As for `C/C=C/CSc1nc2c(c(=O)[nH]c(=O)n2C)n1C/C=C/C`, the “% Inhibition @ 10 uM” value is reported as 2.36%. In the case of `O=C(CSc1c2c(nc3ccccc13)CCC2)Nc1cnc2ccccc2c1` it was -3.09%; in that of `Cc1ccccc1Cn1c(=O)n(Cc2ccccc2)c(=O)c2c(C)c(C(=O)N(C)C)sc21`, -3.02%. In the case of `CC1=C(C(=O)Nc2ccccc2C)C(c2cccs2)n2c(s/c(=C/c3cnn(C)c3)c2=O)=N1` (centres unmarked) it was -2.99%.

Take `O=S(=O)(c1ccccc1)N1CCSC1c1ccccc1` (centres unmarked): the “% Inhibition @ 10 uM” value is on record as -3.6%. As for `Cc1ccc(CN(CC(=O)NC(C)c2ccccc2)S(=O)(=O)c2ccccc2)cc1` (centres unmarked), the “% Inhibition @ 10 uM” value is given as -1.61%. Consider `CCCn1c(=O)c2sccc2n2c(CCCC(=O)N3CCN(Cc4ccccc4)CC3)nnc12`, for which the “% Inhibition @ 10 uM” value is on record as -0.212%. `CCS(=O)(=O)c1nc(S(=O)(=O)c2ccc(Cl)cc2)c(NCCCN(C)C)s1`: the “% Inhibition @ 10 uM” value was determined as 1.15%. As to `COc1ccc(CNC(=O)C2COc3ccccc3O2)cc1` (centres unmarked), the “% Inhibition @ 10 uM” value is on record as -7.63%. `CC(C)CCn1cnc2c(cnn2-c2ccc(Cl)cc2)c1=O`: the “% Inhibition @ 10 uM” value is recorded as -3.53%.

As to `CCCCC(=O)Nc1nc(-c2ccc(S(=O)(=O)N3CCOCC3)cc2)cs1`, the “% Inhibition @ 10 uM” value is given as -2.06%. With `N#C/C(=C/C=C/c1ccccc1)c1nc(-c2ccc(F)cc2)cs1`, the “% Inhibition @ 10 uM” value is -9.91%. As for `COc1ccc(CCNCc2ccc(SC)cc2)cc1`, the “% Inhibition @ 10 uM” value is -3.32%. With `O=C(Nc1ccncc1)c1nn2c(C(F)(F)F)cc(-c3cccs3)nc2c1Br`, the “% Inhibition @ 10 uM” value is on record as 1.58%. With `Cc1c(CNC(=O)c2cc(-c3ccccc3)nc3ccccc23)cnn1C` the figure was -0.318%; with `N#CCNC(=O)[C@H](CCC(=O)Nc1ccccc1)NC(=O)c1ccc(Br)cc1`, -1.41%.

Turning to `COc1ccc(-c2[nH]nc3c2C(c2ccc(C)o2)C(C#N)=C(N)O3)cc1` (centres unmarked), the “% Inhibition @ 10 uM” value is 5.9%.

Consider `Cc1cccc2sc(N(CCCN(C)C)C(=O)c3ccc4ncsc4c3)nc12`, for which the “% Inhibition @ 10 uM” value is -1.07%. With `CC1(C)CC2CC(C)(CN2C(=O)/C(=C\c2ccco2)NC(=O)c2ccc(Cl)cc2)C1` (centres unmarked), the “% Inhibition @ 10 uM” value was determined as 5.37%. Regarding `COc1ccc(CNCc2c(C(=O)O)n(Cc3ccc(OC)cc3)c3cc(OC)ccc23)cc1`, the “% Inhibition @ 10 uM” value was 6.42%. `COc1cc(-c2nc3cc(C)ccn3c2N)ccc1O`: the “% Inhibition @ 10 uM” value is reported as -5.23%. `c1ccc2c(CCc3ccncc3)c[nH]c2c1`: the “% Inhibition @ 10 uM” value is given as 6.14%. As to `Clc1ccc(Cn2ncc3c(N4CCCCCC4)ncnc32)c(Cl)c1`, the “% Inhibition @ 10 uM” value stood at 5.31%.

With `COc1ccc(C(C)NCc2ccccn2)cc1` (centres unmarked), the “% Inhibition @ 10 uM” value was -5.67%. As to `CCOC(=O)C(C(=O)Nc1cc(N(C)C)ccc1C)C1CCCCC1` (centres unmarked), the “% Inhibition @ 10 uM” value is recorded as -2.42%. As to `O=C(c1cc2c(s1)-c1ccc(Cl)cc1S(=O)(=O)C2)N1CCN(c2ccccn2)CC1`, the “% Inhibition @ 10 uM” value is listed as 0.953%.

On to `COc1cccc(-n2c(S)nnc2CN2CCSCC2)c1`, for which the “% Inhibition @ 10 uM” value stood at 5.92%.

Consider `COc1ccc(C(=O)n2nc(-c3ccco3)nc2NCc2ccc(F)cc2)cc1`, for which the “% Inhibition @ 10 uM” value was -1.11%. On to `N#Cc1ccccc1NS(=O)(=O)c1ccccc1[N+](=O)[O-]`, for which the “% Inhibition @ 10 uM” value is on record as 2.38%.

For `Cn1nnc2c(N3CC=CCC3)nc(Cc3ccc(Cl)cc3Cl)nc21`, the “% Inhibition @ 10 uM” value was -3.24%.

`CCOc1cc(CN2CCCN(C)CC2)ccc1O`: the “% Inhibition @ 10 uM” value worked out at 2.47%.

For the compound `COc1ccc(-n2c(C)cc(/C=C3/C(=N)N4OC(C)=CC4=NC3=O)c2C)cc1Cl`, the “% Inhibition @ 10 uM” value turned out to be 0.317%.

Turning to `CCN(CC)C(=O)C1CCCN(Cc2ccc(OC)c(C)c2C)C1` (centres unmarked), the “% Inhibition @ 10 uM” value is given as -0.197%. For `O=C(Cc1ccccc1)Nc1ccc(CN2CCOCC2)cc1`, the “% Inhibition @ 10 uM” value is -0.737%.

Consider `CN1CCCN(Cc2c(Cl)cccc2Cl)CC1`, for which the “% Inhibition @ 10 uM” value is -0.0494%. In the case of `Cc1ccc(-c2noc(CCC(=O)NC3CCN(Cc4ccccc4)CC3)n2)cc1`, the “% Inhibition @ 10 uM” value is reported as -4.03%.
